Laboratory results from the supplement of paper PMC4166925.
± gives the standard deviation of the averaged measurements. The full ranking holds about 33,000 sequences; the median of “E-score (dimensionless, -0.5 to 0.5)” is about -0.049, and the highest 2% start at about 0.37. Some of the results follow.

These sequences were tested on T1, PmTbr T-box DNA-binding domain (GST fusion) (assay: PBM E-score of 8-mer (E-score (dimensionless, -0.5 to 0.5)); Tbr is Tbrain of the sea star Patiria miniata (Pm) or the sea urchin Strongylocentrotus purpuratus (Sp); higher = stronger binding preference; most listed sequences are background and not binding sites). Conditions: the construct has about 5 more residues each side.
T1 sequence: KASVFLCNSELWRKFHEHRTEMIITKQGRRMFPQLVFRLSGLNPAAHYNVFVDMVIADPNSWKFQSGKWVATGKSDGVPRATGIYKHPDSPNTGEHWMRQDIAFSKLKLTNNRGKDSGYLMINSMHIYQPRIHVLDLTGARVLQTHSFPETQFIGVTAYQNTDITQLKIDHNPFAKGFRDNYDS
Protocol: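 Universal protein-binding microarray (Agilent AMADID 016060, 60-bp probes with a 35-bp variable region) incubated with 200 nM GST-fused Patiria miniata Tbr T-box DNA-binding domain (residues 272-466) in PBS pH 7.5. Scored for every ungapped 8-mer (given with its reverse complement) by the Universal PBM Analysis Suite as E-score (modified Wilcoxon-Mann-Whitney enrichment, range -0.5 to 0.5; >0.45 counts as bound) and Z-score of median probe intensity. Two replicate arrays (datasets 1 and 2).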
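Note: 200 nM protein in PBS on universal arrays averaged over duplicate arrays.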

| Sequence | PBM E-score of 8-mer |
| --- | --- |
| TAACCGCA | -0.0839 ± 0.031 |
| AGGAATTA | -0.222 ± 0.037 |
| CGATCAAA | -0.0882 ± 0.061 |
| AATGGAGC | -0.227 ± 0.0096 |
| GGTCCGAC | -0.117 ± 0.024 |
| GGGTTAAA | -0.245 ± 0.033 |
| CTTCTGTA | 0.0317 ± 0.032 |
| CAGTTTCG | -0.0351 ± 0.088 |
| GCGACCGA | 0.0508 ± 0.085 |
| AACTTCCC | -0.0518 ± 0.071 |
| CGAGAAAG | 0.0893 ± 0.019 |
| AAGTTTGC | 0.0555 ± 0.13 |
| CGAGCAGA | -0.129 ± 0.0091 |
| GCCGCGGC | -0.135 ± 0.062 |
| AACGCACA | 0.0559 ± 0.0019 |
| ATCATGGA | -0.277 ± 0.034 |
| ATTTCCTC | -0.0319 ± 0.022 |
| CATAGCGG | -0.00624 ± 0.058 |
| AACTCGTA | 0.0893 ± 0.082 |
| CGCTCTGC | -0.0795 ± 0.086 |
| AGATATCA | 0.124 ± 0.067 |
| TGGTATAA | -0.214 ± 0.15 |
| GAACTTCC | -0.179 ± 0.032 |
| CATAACGC | 0.167 ± 0.0098 |
| CATAGCGC | 0.122 ± 0.03 |

| Sequence | PBM E-score of 8-mer |
| --- | --- |
| AAGCTCAG | -0.0772 ± 0.0017 |
| TAAGCTCA | -0.121 ± 0.092 |
| AAACGAAA | -0.182 ± 0.12 |
| CGTTTGAG | -0.258 ± 0.075 |
| CCACACGA | 0.0258 ± 0.03 |
| TAGGAACA | 0.00458 ± 0.053 |
| AACGCGTT | 0.193 ± 0.053 |
| GTTCCCCA | -0.00769 ± 0.079 |
| GATGTGAA | 0.237 ± 0.039 |
| AAACTTCC | -0.173 ± 0.03 |
| GATATACC | -0.114 ± 0.031 |
| AGGAGGGC | -0.158 ± 0.029 |
| CTGGGAGC | -0.0864 ± 0.038 |
| CCATTCCA | -0.207 ± 0.028 |
| CCATACCC | -0.214 ± 0.065 |
| CGGAGACA | -0.0405 ± 0.06 |
| CTGTGGGC | -0.112 ± 0.032 |
| GGCACCGA | -0.0859 ± 0.03 |
| AAAACATC | -0.0672 ± 0.081 |
| CAACAGAG | -0.237 ± 0.031 |
| AACGCGTC | 0.226 ± 0.019 |
| GCGAAATA | 0.265 ± 0.059 |
| GAAGCAAC | 0.0778 ± 0.07 |
| CGCGGTGA | 0.138 ± 0.0032 |
| ACCCTTAT | 0.00575 ± 0.04 |

| Sequence | PBM E-score of 8-mer |
| --- | --- |
| CCCCCGGA | -0.222 ± 0.011 |
| AATCGCGC | 0.311 ± 0.024 |
| AAAATTCG | -0.117 ± 0.023 |
| AGCTCACC | -0.00751 ± 0.022 |
| AGTCCGAG | -0.0576 ± 0.054 |
| ACAACCAT | 0.0298 ± 0.04 |
| AGCACTGG | 0.0172 ± 0.081 |
| TACTACTA | -0.287 ± 0.022 |
| CCACTGAG | -0.101 ± 0.02 |
| GATCCAAA | -0.0214 ± 0.12 |
| ACCGCATC | -0.0361 ± 0.016 |
| CGCGATTC | 0.199 ± 0.024 |
| AGATCACC | -0.045 ± 0.0096 |
| TACCGGGA | -0.182 ± 0.063 |
| AGTACAGA | 0.00177 ± 0.049 |
| AACATTAA | -0.16 ± 0.045 |
| ACACTCGT | 0.262 ± 0.034 |
| CTCATCTA | -0.306 ± 0.035 |
| CGAATCAG | -0.0425 ± 0.0058 |
| ATACCTAG | -0.21 ± 0.021 |
| AAGAGGAG | 0.0185 ± 0.061 |
| GAGTTATC | -0.00609 ± 0.018 |
| CACCTTTA | 0.404 ± 0.013 |
| AGTGTGTA | 0.172 ± 0.073 |
| CATCCCAC | 0.0297 ± 0.081 |

| Sequence | PBM E-score of 8-mer |
| --- | --- |
| GATTCAAA | -0.129 ± 0.046 |
| CGGCGCCA | 0.199 ± 0.025 |
| ACGCCCCG | 0.173 ± 0.1 |
| CCTGACAC | 0.435 ± 0.0077 |
| CAGAGCCG | -0.0931 ± 0.019 |
| ACTAATGG | -0.0207 ± 0.047 |
| GATAGTGC | 0.0563 ± 0.046 |
| AATGTCCA | -0.128 ± 0.028 |
| CAAATTCA | 0.27 ± 0.062 |
| ACACCACT | 0.254 ± 0.012 |
| CCACCCGC | 0.0903 ± 0.013 |
| AACAAGCT | -0.168 ± 0.035 |
| GTTTGGGA | -0.0818 ± 0.083 |
| GTAATTGA | 0.00724 ± 0.073 |
| ATGGCAAT | 0.0272 ± 0.044 |
| CTAGCTAC | 0.0604 ± 0.0093 |
| GACCGGGA | -0.215 ± 0.053 |
| GATTTACC | -0.0594 ± 0.011 |
| CTCAGGAG | -0.0963 ± 0.019 |
| ACGGCTGC | -0.00453 ± 0.0036 |
| CCATCGAA | -0.233 ± 0.058 |
| CACCAGTG | 0.184 ± 0.025 |
| CAGACTAG | -0.187 ± 0.057 |
| CGCTGGAC | 0.0209 ± 0.021 |
| AGTTTCAC | 0.244 ± 0.029 |

| Sequence | PBM E-score of 8-mer |
| --- | --- |
| CAGTTCCC | 0.136 ± 0.025 |
| ATAATCGA | -0.0123 ± 0.056 |
| CAGTTGGG | -0.077 ± 0.084 |
| AGAGTGGG | -0.217 ± 0.065 |
| ACTTCCGC | 0.0444 ± 0.012 |
| ACCGTCGC | 0.136 ± 0.047 |
| ACGCATAC | -0.0469 ± 0.017 |
| ACATGACT | -0.132 ± 0.036 |
| CGCAGTCA | -0.0066 ± 0.0064 |
| ACCTGTGG | 0.251 ± 0.0093 |
| CTATTGCA | -0.0832 ± 0.0029 |
| AGAACCCT | -0.229 ± 0.014 |
| CAAATAGA | -0.176 ± 0.041 |
| CTCCTAGA | -0.252 ± 0.036 |
| GTACAAGA | -0.298 ± 0.015 |
| AGCTGTTA | 0.298 ± 0.06 |
| AAGCTGTA | -0.0497 ± 0.05 |
| ATTGAGCA | -0.338 ± 0.029 |
| ACCCTCGA | 0.00773 ± 0.041 |
| AAAATGAC | 0.0503 ± 0.053 |
| ACATTAAT | -0.202 ± 0.093 |
| CTTCAATC | 0.0436 ± 0.043 |
| CGGAGGGC | -0.0305 ± 0.062 |
| GATTGTCA | 0.298 ± 0.0064 |
| ATAACCCA | -0.111 ± 0.091 |

| Sequence | PBM E-score of 8-mer |
| --- | --- |
| AACCTAGC | 0.088 ± 0.041 |
| CCGTTGGA | -0.0575 ± 0.014 |
| AGAGAGAG | 0.0664 ± 0.0028 |
| CAATTCCC | -0.188 ± 0.036 |
| CATTGCAC | 0.0799 ± 0.057 |
| TGCGTCAA | 0.0593 ± 0.038 |
| TCCGACGA | 0.035 ± 0.094 |
| AGCTTTCC | 0.00209 ± 0.0034 |
| AGAGCCGA | -0.00126 ± 0.022 |
| ATCCGAAC | -0.238 ± 0.035 |
| AGGTGAGA | 0.486 ± 0.0024 |
| GGCTATTA | -0.0688 ± 0.068 |
| CTAGTACA | 0.161 ± 0.061 |
| CTCTGTGA | 0.0449 ± 0.011 |
| CGTACCAA | -0.0579 ± 0.0058 |
| ACGTGATG | 0.137 ± 0.028 |
| ACCACGAA | -0.0538 ± 0.031 |
| GTGGACGA | -0.178 ± 0.0023 |
| AAACAGCG | 0.0319 ± 0.027 |
| ATGGCAGC | 0.161 ± 0.028 |
| AGGAAAAC | -0.112 ± 0.11 |
| CTCACTGC | 0.0572 ± 0.031 |
| TTTAAAAA | -0.305 ± 0.035 |
| GACTATTA | -0.212 ± 0.038 |
| AGGGAATC | -0.209 ± 0.018 |

| Sequence | PBM E-score of 8-mer |
| --- | --- |
| ATAACGAT | -0.0119 ± 0.062 |
| CATGTAGG | -0.0204 ± 0.034 |
| ATGGATAA | -0.205 ± 0.1 |
| AGCCGTCG | -0.0661 ± 0.062 |
| AGGGAAGA | -0.29 ± 0.023 |
| ACTGCGCG | -0.189 ± 0.011 |
| AAATACTG | -0.245 ± 0.042 |
| CACGGAGG | 0.077 ± 0.042 |
| CAAGTATA | -0.00921 ± 0.041 |
| CATACGGG | -0.213 ± 0.073 |
| AGTAATGC | -0.147 ± 0.047 |
| AACCGAGA | 0.00939 ± 0.047 |
| ATTCGTAG | -0.167 ± 0.023 |
| CACGCGGG | 0.147 ± 0.069 |
| CGAGGCTC | -0.199 ± 0.09 |
| CTAGCGGA | -0.0128 ± 0.05 |
| GTAAACCA | 0.0429 ± 0.038 |
| CTCCCCAC | 0.00426 ± 0.045 |
| TCGACAAA | 0.265 ± 0.056 |
| GCTAGCCC | -0.089 ± 0.091 |
| ATTTTCAG | -0.197 ± 0.067 |
| GGTAAGAA | -0.0571 ± 0.028 |
